# Experimental data: the supplement of paper PMC11417369
# ± gives the standard deviation of the averaged measurements. This is one part of the list.
# Tested on: PfAP2-I AP2 domain 3 (GST-tagged)
# Experiment: gcPBM binding intensity (ln(normalized median fluorescence intensity)); higher = stronger DNA binding
# How it was run: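 In this array assay, P. falciparum DNA-binding domains with a GST tag, expressed in E. coli, were applied for 1 h to primer-extended double-stranded 36-bp intergenic genomic probes and negative controls on an Agilent 4 × 180k array. Bound protein was visualised with Alexa488 anti-GST antibody at 488 nm. Binding intensity is the highest Masliner-normalised natural-log median intensity across replicate spots of either probe orientation.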
row,Sequence,gcPBM binding intensity (ln)
1,AACATATTTATGATGTGTACCTACATAATAGAATTT [XGTACX_site141],7.54 ± 0.49
2,CATAATGTAAATAAGTGTACACATATATAATACATA [XGTACX_site3108],8.09 ± 0.23
3,TTTTTTAATATATTATTATAAATATTTTTTATGTGT [GTGCAC_negctrl_site712],7.54 ± 0.47
4,ACTACATAATATTAACGTACATATTATAATACTTGC [XGTACX_site954],7.95 ± 0.57
5,ATATAACACATTAGTTGTACTATTTTTAATTGGTGA [XGTACX_site961],7.62 ± 0.56
6,TACATAATAACATGTACACACATTCTTCTATAAATG [CACACA_site4061],7.77 ± 0.45
7,ACATAATAAAAATGACGTACAATTTTTTTTTTTCAT [XGTACX_site8340],7.75 ± 0.38
8,CATTAAAAAGAAAGTTCACACACATATATATGACGG [CACACA_site8836],7.82 ± 0.49
9,TTTATATTATTAGAAACACACATTAGATTAAAATTA [CACACA_site3286],7.37 ± 0.42
10,TATATATATATGTGCACACCAATTGTATGTAATATA [CACACA_site3889],10.04 ± 0.092
11,TATTTAATTACATGAACACACATTATATATTTTTAA [CACACA_site5615],7.53 ± 0.46
12,TGCTATAATTTATATACACACAAATATATACACATA [CACACA_site9356],7.8 ± 0.34
13,GATAATAATAAACAACCACACACAAAAAAACAAAAA [CACACA_site9074],7.94 ± 0.49
14,TTCAAATTTCCACATACACACCTTGTAGATCTATAT [CACACA_site6270],8.04 ± 0.54
15,CAATGTTGTACATACACACACACAAAAAAAAAATAA [CACACA_site2407],8.11 ± 0.11
16,ATAAAAAAACACACTCGTACACACATATTTTCTTTC [XGTACX_site6565],8.07 ± 0.45
17,AAAAAAAAAAAAAAAAAAAAAAAAAAAAAAACATAT [GTGCAC_negctrl_site580],10.2 ± 0.23
18,ATGAATAATTAATGATGTACTTAAAAAAAAAAATAT [XGTACX_site6346],7.88 ± 0.55
19,ATATATTATATTGAATGTACATATATATATTATATA [XGTACX_site8445],7.74 ± 0.14
20,GTTAATATCTTGAACAGTACTCTAAATATCTACATA [XGTACX_site5358],7.68 ± 0.53
21,TTACAATAAATTATAGTGCAATATTTTATTTAATAT,10.6 ± 0.36
22,TAGCCCATATGGAATACACACTGAAAATAAAAAAAG [CACACA_site5799],7.83 ± 0.76

row,Sequence,gcPBM binding intensity (ln)
1,GAAATTTTATTTCGGCGGACAAATGTATACTTTCTT [XGTACX_site4238],7.66 ± 0.61
2,AAAATATATATAAATGCATGCATAATGAAATATATA [TGCATGCA_site39],7.94 ± 0.76
3,TTTTAAAAAACAAACACACACGTAGAAAAAAAAAAA [CACACA_site4608],8.21 ± 0.71
4,CTGTATAAAACCAATGCATGTAAATATATTAATATA [TGCATGCA_site511],7.96 ± 0.35
5,GAGAAGACATTACACAGTACCCAGTAACTCTACGGA [XGTACX_site2000],7.54 ± 0.47
6,AAATTGGGGCTTGTTACACACTTAGTGCGAGTTCTA [CACACA_site582],8.22 ± 0.33
7,GATTATTATGTCCATGCATGTTAATATATATTAATT [TGCATGCA_site837],8.19 ± 0.7
8,ATACATCAAGGACACACACACACACGCACACGCACA [CACACA_site6310],8.34 ± 0.56
9,TTATGATGGTCTTTATAAGGGCACATTAAATTCGGC [TGCATGCA_negctrl_site166],8.34 ± 0.43
10,AAACTATTCACTATAATACATTAGAAGTGAATAAAA [TGCATGCA_negctrl_site498],7.56 ± 0.41
11,TGAAAAGGAAATTGTTGTACATATGTTTCTTCCTAA [XGTACX_site3932],7.55 ± 0.44
12,AATAGCAATTTGGGGTGTACACACACCTTATTTAAA [XGTACX_site2234],8.04 ± 0.23
13,TATATATAAATATTCAGTACATAGTGCTATTAAGTG [XGTACX_site1979],9.16 ± 0.057
14,CCATTATATCTAAGTACACACATTAATTTTTTTTTT [CACACA_site6115],8.05 ± 0.34
15,AGAAATTAATCGAGGTGTACGTACATCCAAATATAT [XGTACX_site7650],8.18 ± 0.32
16,ATATATTTAACAAGATGTACAATTTTATAAAAAATA [XGTACX_site2351],7.7 ± 0.35
17,TTTTTATAAAAAAATAGTACTCGTCTAATCTTATGT [XGTACX_site8532],7.79 ± 0.46
18,TATATATATATATATACACACAAAAAAATAAATTCT [CACACA_site98],9.44 ± 0.18
19,ATTTATTTTAATAATTGTACATGTTATTTTATATAT [XGTACX_site2667],7.68 ± 0.33
20,TACTTTTCATCTTCTTAACACACAAAAAAAAAAAAA [CACACA_site9290],8.05 ± 0.38
21,ATCATTTTTAAAGGAACACACAAAAAAAGTTATAAT [CACACA_site6761],7.89 ± 0.76
22,ATATATTATTATAACTGTACTTTTTTTGTGGTTAAT [XGTACX_site8266],8.14 ± 0.28
